This is an account of results in US6436654 (PHARMACIA AND UPJOHN, dated 2002).

This experiment deals with T1, GAL4/HIF 1-826 (human, UniProt P04386 1-147 (Saccharomyces cerevisiae entry), [35S]methionine-labeled (in vitro translated) in the pull-down assay).
T1 construct: also called GAL4-HIF-1α; pCMX-GAL4-HIF-1α
Briefly: pull-down of in vitro translated [35S]-labeled GAL4/HIF 1-826 with purified GST.

B1: GST alone (other)
chain: not shown
notes: Negative control in the pull-down assays; also called purified GST; empty GST expression vector
With B1, the binding result is reported as “no binding”.
